Source: PubChem BioAssay AID1460 (National Center for Advancing Translational Sciences (NCATS), 2008)
In all, about 270,000 compounds went through this assay and about 5,800 (2.1%) were called active. The shares of active, inactive and inconclusive entries below differ from those in the screen. Calls come from the whole dose curve; as a rule, active = well fitted inhibition curve with a large enough effect; inconclusive = small, poorly fitted or top-dose-only effect; inactive = flat fitted curve, though single readings scatter. A potency beside an inconclusive call is a rough fit, not a confirmed value.

Each compound was assayed against Microtubule-associated protein tau (Homo sapiens) (UniProt P10636) (assay: qHTS for Inhibitors of Tau Fibril Formation, Thioflavin T Binding). Conditions: recombinant tau K18 P301L, heparin-induced fibrillization, ThT fluorescence; series mostly up to 57.4 µM.
How it was run: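 ThT emission at 510 nm, taken 1 hr after adding 30 uM dye, quantifies aggregates formed when 20 uM heparin acts on human tau K18 P301L for 6 hr at 37 C.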
Note: nearly all actives have a fitted effect of over 55% in size.
Potency is the fitted concentration of half-maximal effect; tags give direction and shape of the fitted curve.

Chain of UniProt P10636 (P10636 whole entry, looked up): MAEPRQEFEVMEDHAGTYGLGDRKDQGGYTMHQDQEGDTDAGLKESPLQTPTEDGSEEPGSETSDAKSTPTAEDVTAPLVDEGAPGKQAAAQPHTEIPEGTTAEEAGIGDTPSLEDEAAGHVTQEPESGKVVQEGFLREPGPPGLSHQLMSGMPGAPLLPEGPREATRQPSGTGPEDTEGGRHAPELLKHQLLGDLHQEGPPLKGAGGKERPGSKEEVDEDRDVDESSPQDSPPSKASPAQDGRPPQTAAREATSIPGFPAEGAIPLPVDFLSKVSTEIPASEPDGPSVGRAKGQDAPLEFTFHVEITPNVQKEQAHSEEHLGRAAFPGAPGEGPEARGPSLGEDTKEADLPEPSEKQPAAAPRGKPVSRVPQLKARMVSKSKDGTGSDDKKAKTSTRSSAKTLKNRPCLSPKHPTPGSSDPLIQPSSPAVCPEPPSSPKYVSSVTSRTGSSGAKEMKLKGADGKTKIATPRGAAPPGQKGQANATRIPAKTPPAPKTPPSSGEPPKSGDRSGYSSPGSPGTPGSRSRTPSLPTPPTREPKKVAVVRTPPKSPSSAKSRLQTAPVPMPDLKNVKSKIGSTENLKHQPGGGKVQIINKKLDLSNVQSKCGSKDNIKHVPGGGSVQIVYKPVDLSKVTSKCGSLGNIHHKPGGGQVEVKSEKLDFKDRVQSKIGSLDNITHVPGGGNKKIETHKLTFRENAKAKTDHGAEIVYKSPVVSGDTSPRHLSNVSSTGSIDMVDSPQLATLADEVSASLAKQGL

Row | Compound | Potency
1 | COc1ccc(CCNc2oc(-c3cccc4ccccc34)nc2P(=O)(OC)OC)cc1OC | inconclusive: 25.1 µM [inhibitor, single point]
2 | COC(=O)CCC(NC(=O)c1cc(-c2ccc3c(c2)OCCO3)oc1C)C(=O)OC (stereo not given) | inactive
3 | CCC(C)NC(=O)CSc1nc2c(sc3ccccc32)c(=O)n1CCc1ccc(OC)c(OC)c1 (stereo not given) | inactive
4 | CCN(CC)c1nc2c(S(=O)(=O)c3cccc(Cl)c3)nnn2c2ccsc12 | inactive
5 | CCc1ccc(CN(Cc2ccco2)C(=O)COc2ccc(Cl)c(C)c2)cc1 | inconclusive: 10 µM [inhibitor, single point]
6 | CCCCCSc1nc2c(c(=O)[nH]c(=O)n2C)n1C | inactive
7 | Cc1cccc(OCC(O)Cn2c(=N)n(CCN3CCCCC3)c3ccccc32)c1 (stereo not given) | inactive
8 | COc1ccccc1C(=O)Nc1ccc2c(c1)nc(CN1CCN(C(C)=O)CC1)n2C | inconclusive: 35.5 µM [inhibitor, partial curve]
9 | Cc1cccn2c(=O)c(C=O)c(N3CCN(c4ccccc4)CC3)nc12 | inconclusive: 25.1 µM [inhibitor, partial curve]
10 | N=C(N)N=Nc1c(O)[nH]c2ccc(Br)cc12 | inconclusive: 12.6 µM [inhibitor, partial curve]
11 | CCOC(=O)Cc1csc(N/N=C/c2ccccc2)n1 | inconclusive: 20 µM [inhibitor, partial curve]
12 | Cc1[nH]nc2c1C(c1ccc(-c3ccccc3C#N)o1)C(C#N)=C(N)O2 (stereo not given) | active: 15.8 µM
13 | O=[N+]([O-])c1ccc(CSc2nnc(SCc3ccc(Cl)cc3)s2)cc1 | inconclusive: 12.6 µM [inhibitor, partial curve]
14 | COc1ccc(/C=N/NC(=O)c2[nH]c3ccc(Br)cc3c2-c2ccccc2)c(C(=O)O)c1OC | inconclusive: 25.1 µM [inhibitor, partial curve]
15 | Clc1ccc(SCc2cn3ccccc3n2)cc1 | inconclusive: 25.1 µM [inhibitor, partial curve]
16 | COc1ccc(C2CC2/C(C)=N/OC(=O)c2ccc(F)cc2)cc1 (stereo not given) | inconclusive: 35.5 µM [inhibitor, single point]
17 | COc1ccc(CNC(=O)Cn2nc(N3CCN(c4ccccc4)CC3)ccc2=O)c(OC)c1 | inconclusive: 8.91 µM [inhibitor, partial curve]
18 | Cc1ccc(C)c(OCC(O)CN2C(C)CCCC2C)c1 (stereo not given) | inactive
19 | NNC(=O)c1ccc(CSc2n[nH]c(=O)[nH]c2=O)cc1 | inconclusive: 8.91 µM [inhibitor, partial curve, poor fit]
20 | CCN1/C(=C/c2ccc3ccccc3[n+]2CC)C=Cc2ccccc21 | active: 3.16 µM
21 | O=S(=O)(NCc1cc(-c2ccccc2Cl)no1)c1ccc(Cl)cc1 | inconclusive: 14.1 µM [inhibitor, partial curve]
22 | COc1ccc(C(=O)c2c(N)sc3c2CCN(C(=O)OC(C)(C)C)C3)cc1 | inconclusive: 10 µM [inhibitor, partial curve]
23 | COc1ccc(S(=O)(=O)c2c(SC)nn(CC(=O)Nc3cccc(C)c3C)c2N)cc1 | inactive
24 | C=CCn1c(N/N=C/c2ccc(O)cc2)nc2ccccc2c1=O | inactive

Row | Compound | Potency
25 | COc1ccc(N2CCN(S(=O)(=O)CCNC(=O)COc3ccccc3F)CC2)cc1 | inactive
26 | CCOc1ccccc1CNC(=O)CCc1c(C)nn(-c2ccc(N3CCOCC3)nn2)c1C | inactive
27 | CC1CC(C)CN(C(=O)c2ccc3c(c2)N(Cc2ccccc2)CCS3)C1 (stereo not given) | inconclusive: 28.2 µM [inhibitor, partial curve]
28 | CC(=O)c1c(C)[nH]c(C(=O)OCC(=O)Nc2ccc(Cl)cc2[N+](=O)[O-])c1C | inconclusive: 10 µM [inhibitor, partial curve]
29 | CCOc1ccc(OCC(=O)Nc2nccs2)cc1 | inactive
30 | O=C(Nc1ccc2nn(-c3ccccc3)nc2c1)c1ccc(Br)o1 | inconclusive: 0.631 µM [inhibitor, full curve]
31 | COc1ccc(CCNC(=O)Cn2nnc(-c3ccc(N(C)C)cc3)n2)cc1OC | inconclusive: 15.8 µM [inhibitor, partial curve]
32 | COc1nc(-c2ccccc2)ccc1-c1noc(-c2ccccc2Br)n1 | inactive
33 | O=C(Cc1ccc([N+](=O)[O-])cc1)N1CCCCCC1 | inactive
34 | CCOC(=O)c1sc(=S)n(C)c1NC(=O)c1ccc(F)cc1 | inconclusive: 17.8 µM [inhibitor, partial curve]
35 | O=c1oc(-c2cccs2)nc2sc3c(c12)CCCC3 | inconclusive: 1 µM [inhibitor, partial curve]
36 | O=C(Cc1ccc2c(c1)OCCO2)N1CCN(S(=O)(=O)c2cccc(Cl)c2Cl)CC1 | inconclusive: 39.8 µM [inhibitor, single point]
37 | CC1(C)CN(c2ccc(Br)cc2Br)C1=O | inactive
38 | C(=N\N(Cc1ccccc1)c1ccccc1)/c1cccnc1 | inconclusive: 20 µM [inhibitor, single point]
39 | CCn1c(C(=O)N2CCC(C(=O)NCCCSC3CCCCC3)CC2)cc2sccc21 | inconclusive: 35.5 µM [inhibitor, partial curve]
40 | CCN(C(=O)CN1CCN(c2ccc(O)cc2)CC1)c1c(N)n(Cc2ccccc2)c(=O)[nH]c1=O | active: 28.2 µM
41 | Cc1ccc(C(=O)Oc2oc(-c3ccco3)nc2C=Nc2ccccc2)cc1 | inconclusive: 25.1 µM [inhibitor, single point]
42 | O=C1C(=O)N(CCN2CCOCC2)C(c2ccccn2)/C1=C(/O)c1ccc(F)cc1 (stereo not given) | inconclusive: 28.2 µM [inhibitor, partial curve]
43 | Cc1ccc(CNC(=O)CSc2nc3c(sc4ccccc43)c(=O)n2CCCN2CCCC2)cc1 | inconclusive: 39.8 µM [inhibitor, partial curve, poor fit]
44 | Cc1cccc(-c2nnc(SCC(=O)NCc3ccc4c(c3)OCO4)n2C)c1 | inconclusive: 15.8 µM [inhibitor, partial curve]
45 | Cc1cn2c(=O)cc(COC(=O)c3cccc(NC(=O)COc4ccccc4C)c3)nc2s1 | inconclusive: 0.562 µM [inhibitor, single point]
46 | CCC(=O)n1nc(-c2ccc(OC)cc2)nc1SC | inconclusive: 2.51 µM [inhibitor, partial curve]
47 | Cc1ccc2c(c1)C(=O)C(=O)N2CCCOc1ccccc1 | inconclusive: 22.4 µM [inhibitor, partial curve]
48 | CC(/C=N/N1C(=O)CSC1=S)=C\c1ccccc1 | inconclusive: 14.1 µM [inhibitor, partial curve]

Row | Compound | Potency
49 | COC(=O)c1sccc1NC(=O)c1csc(C)c1 | inactive
50 | Cc1ccc(C(=O)Oc2c(S(=O)(=O)c3ccccc3)c(C)nn2-c2ccccc2)cc1 | inconclusive: 12.6 µM [inhibitor, partial curve]
51 | CC(=O)N(c1ccccc1)C(C)c1nc(C#N)c(C#N)nc1C (stereo not given) | inconclusive: 28.2 µM [inhibitor, single point]
52 | CN1CCN(c2nc(Nc3ccc(O)cc3)nc3ccccc23)CC1 | inconclusive: 22.4 µM [inhibitor, single point]
53 | Cn1c(SCc2nc3ccccc3c(=O)[nH]2)nc2ccccc21 | inconclusive: 14.1 µM [inhibitor, partial curve]
54 | Cc1ccc2nc(-c3cc(-c4ccccc4)no3)cn2c1 | inconclusive: 1.78 µM [inhibitor, single point]
55 | CCNc1ccc(Br)cc(C(=O)/C=C/c2ccc3c(c2)OCO3)c1=O | active: 11.2 µM
56 | Cc1cc(=O)oc2cc(NC(=O)c3cc4ccccc4o3)ccc12 | inconclusive: 0.794 µM [inhibitor, full curve, poor fit]
57 | Cc1ccc(C)c(CSCC(=O)NCc2cccs2)c1 | inactive
58 | CCCCCOC(=O)Cn1c(=O)oc2ccc(C)cc21 | inactive
59 | COc1nc(Nc2ccc(C(C)=O)cc2)nc(OC)n1 | inconclusive: 39.8 µM [inhibitor, single point]
60 | COc1cc(/C=N/Nc2nc(=O)[nH]nc2C)cc(OC)c1O | inconclusive: 25.1 µM [inhibitor, single point]
61 | CC(=O)Nc1ccc(NC(=S)NC(=O)/C=C/c2ccc(Cl)cc2)cc1 | inconclusive: 7.08 µM [inhibitor, full curve]
62 | Cc1ccc(/C=c2/sc3n(c2=O)CCCN=3)o1 | inconclusive: 31.6 µM [inhibitor, single point]
63 | O=C(N/N=C/c1ccc[nH]1)c1cc(-c2ccc(Cl)cc2)nc2ccccc12 | inactive
64 | CC(C)[C@@H](CC(=O)N[C@@H]1CCCC[C@H]1C(=O)N[C@H](CC(=O)N[C@@H](CCC(=O)O)CC(=O)O)Cc1ccccc1)NC(=O)C[C@H](CO)NC(=O)[C@@H]1CNCC[C@H]1N | inactive
65 | CCc1ccccc1NC(=O)C1CCN(C(=O)N2CC(C)Oc3ccc(Cl)cc32)CC1 (stereo not given) | inconclusive: 17.8 µM [inhibitor, partial curve]
66 | COc1ccccc1/C=C/C(C)=O | inactive
67 | CCOc1ccccc1NC(=O)Cn1c(=O)n(Cc2ccco2)c(=O)c2ccc(C(=O)NC3CCCC3)cc21 | inactive
68 | COc1ccc(C(=O)c2ccc(O)cc2)c(O)c1O | inconclusive: 15.8 µM [inhibitor, partial curve]
69 | O=C(CSc1c[nH]c2ccccc12)N1CCCc2ccccc21 | inconclusive: 28.2 µM [inhibitor, partial curve, poor fit]
70 | COc1ccc(CNC(=O)c2ccc3nc(CCc4ccccc4)oc3c2)c(OC)c1 | inactive
